# The supplement of paper PMC4604168 (melanoma cell lines)
# This is one part of the list. Most values come without repeats; read them as rough.
# Key:
# Experiment in all cases: cell count relative to DMSO control; melanoma cells; higher = more viable cells
# Settings in all cases: library dose: standard library concentration; 72 h
# [1] = tested on: G361
# [2] = tested on: IPC-298
# [3] = tested on: IST-MEL1
# [4] = tested on: LB2518-MEL
# [5] = tested on: LOXIMVI
# [6] = tested on: MEL-HO
# [7] = tested on: MZ2-MEL
# [8] = tested on: MeWo
# [9] = tested on: RPMI7951
# [10] = tested on: RVH-421
# [11] = tested on: SkMel28
# [12] = tested on: SkMel2
# [13] = tested on: SkMel30
# [14] = tested on: SkMel5
# [15] = tested on: UACC257
# [16] = tested on: UACC62
# [17] = tested on: WM115
# [18] = tested on: WM1716
# [19] = tested on: WM1745
# [20] = tested on: WM3526
# 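Also: cells treated in 1,536-well plates, then fixed and DAPI-stained, with nuclei counted from automated high-throughput microscope images.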
Structure (SMILES),cell count [1] [%],cell count [2] [%],cell count [3] [%],cell count [4] [%],cell count [5] [%],cell count [6] [%],cell count [7] [%],cell count [8] [%],cell count [9] [%],cell count [10] [%],cell count [11] [%],cell count [12] [%],cell count [13] [%],cell count [14] [%],cell count [15] [%],cell count [16] [%],cell count [17] [%],cell count [18] [%],cell count [19] [%],cell count [20] [%]
"C[C@@H](Oc1cc(-c2cnn(C3CCNCC3)c2)cnc1N)c1c(Cl)ccc(F)c1Cl [Crizotinib] + CN(C)S(=O)(=O)c1ccc2c(c1)/C(=C/c1cc3c([nH]1)CCCC3)C(=O)N2 [SU6656] (first compound 1 µM, partner dose 2 µM)",51.4,74.4,66.9,56,114,68.7,91.8,49.6,48.2,77.1,44.1,60.3,82.4,52.6,58.6,60.8,37.3,53.6,43.3,68.6
"CS(=O)(=O)CCNCc1ccc(-c2ccc3ncnc(Nc4ccc(OCc5cccc(F)c5)c(Cl)c4)c3c2)o1 [lapatinib] + Nc1nc(F)nc2c1ncn2[C@@H]1O[C@H](CO)[C@@H](O)[C@@H]1O [fludarabine] (first compound 4 µM, partner dose 1 µM)",75.3,62.5,73.8,78.7,149,65.1,66.4,92.2,49.8,73.8,2.63,1.2,23.4,17.8,35.6,62.6,85.6,115,69,31.4
"CNC(=O)c1cc(Oc2ccc(NC(=O)Nc3ccc(Cl)c(C(F)(F)F)c3)cc2)ccn1 [sorafenib] + OCc1c[nH]c2ccccc12 [Indole-3-carbinol] (first compound 2 µM, partner dose 4 µM)",94.7,85.2,116,72.9,141,91.5,97.6,88,127,88.9,77.3,101,103,79.7,93.1,99.4,98.8,100,81.5,88.8
"C[C@@H](Oc1cc(-c2cnn(C3CCNCC3)c2)cnc1N)c1c(Cl)ccc(F)c1Cl [Crizotinib] + CNC(=O)c1cc(Oc2ccc(NC(=O)Nc3ccc(Cl)c(C(F)(F)F)c3)cc2)ccn1 [sorafenib] (first compound 1 µM, partner dose 2 µM)",83.4,81.9,93.9,75.5,189,107,96.1,95.5,95.7,78.5,62,73.8,94.3,74.3,76.4,59.2,87.5,79.5,70,74.9
"C=CCNC1=C2C[C@@H](C)C[C@H](OC)[C@H](O)[C@@H](C)/C=C(\C)[C@H](OC(N)=O)[C@@H](OC)/C=C\C=C(/C)C(=O)NC(=CC1=O)C2=O [Tanespimycin] + C=CCn1c(=O)c2cnc(Nc3ccc(N4CCN(C)CC4)cc3)nc2n1-c1cccc(C(C)(C)O)n1 [MK1775] (first compound 0.01 µM, partner dose 0.1 µM)",62.2,72.9,42.4,33.8,80.4,83.1,106,62.1,23.1,13.5,28.9,59.1,82.5,40.6,83,50.7,25.1,98.8,46.6,69.6
"CS(=O)(=O)CCNCc1ccc(-c2ccc3ncnc(Nc4ccc(OCc5cccc(F)c5)c(Cl)c4)c3c2)o1 [lapatinib] + C=C(c1ccc(C(=O)O)cc1)c1cc2c(cc1C)C(C)(C)CCC2(C)C [Bexarotene] (first compound 4 µM, partner dose 10 µM)",43.6,53.9,63.2,86,63.9,71.7,51.5,63,41.3,94.1,61.8,79.8,84.4,49.3,82.7,37.8,82.7,90.3,90.6,66
"C[C@@H](Oc1cc(-c2cnn(C3CCNCC3)c2)cnc1N)c1c(Cl)ccc(F)c1Cl [Crizotinib] + Cc1ccc(NC(=O)c2cccc(N(C)C)c2)cc1NC(=O)c1ccc(O)cc1 [ZM336372] (first compound 1 µM, partner dose 10 µM)",77.5,85.4,81.2,65,102,89.7,88.4,64.1,55,66.9,84.4,71.4,81,52.1,81.8,81.2,47.1,85.1,43.8,84
"CS(=O)(=O)CCNCc1ccc(-c2ccc3ncnc(Nc4ccc(OCc5cccc(F)c5)c(Cl)c4)c3c2)o1 [lapatinib] + O=C(Nc1cccc(Cl)c1)Nc1ncc(CCNc2ncnc3ccsc23)s1 [SNS314] (first compound 4 µM, partner dose 0.004 µM)",42.1,43.5,58,74.6,72.4,65.7,54.9,46,31.7,80.7,40.3,61.6,84.5,50,65.1,48.2,38.1,46.3,49.8,53.5
